From a collection of fitness landscapes (doi:10.1038/s41467-024-54723-y) come the findings set out here.

In all, about 18,000 sequences were measured (“TetR repression strength (sort-seq, GFP reporter)”: median about 0.23, highest 2% from about 0.68 on). Some of the results follow.

Sequence of UniProt P04483 (P04483 whole entry): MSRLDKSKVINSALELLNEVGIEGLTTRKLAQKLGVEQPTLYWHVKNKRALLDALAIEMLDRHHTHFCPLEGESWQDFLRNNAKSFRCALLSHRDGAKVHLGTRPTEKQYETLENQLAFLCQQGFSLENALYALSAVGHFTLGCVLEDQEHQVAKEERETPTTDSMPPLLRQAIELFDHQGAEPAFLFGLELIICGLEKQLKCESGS

The experiment concerns the target TetR (class B, Tn10) (UniProt P04483). Briefly: TetR repression strength (sort-seq, GFP reporter) (relative to tetO2 = 1); higher = stronger repression. The note with it: E. coli. In outline:
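E. coli SIG10-MAX carried a low-copy plasmid library with eight randomized operator positions between a constitutive promoter and sfGFP, with TetR constitutively expressed. Cells grew 5 h at 37 °C in LB with 50 µg/mL chloramphenicol, then 10^6 cells were FACS-sorted into 13 fluorescence bins, each Illumina-sequenced. Repression strength is the top bin index plus one minus the read-weighted mean bin, divided by the wild-type operator value. Three independent transformations; variants with ≥30 reads in all replicates and CV ≤0.5 were averaged.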
TCCCACGGAGTCGCTGAGA: the TetR repression strength is 0.358. In the case of TCCCACCAAGTAGCGGAGA, the TetR repression strength was determined as 0.104. In turn, TCCCTCTTAGTATCAGAGA had a TetR repression strength of 0.325. As to TCCCGTCCAGTGGCTGAGA, the TetR repression strength was 0.123. TCCCCTGGAGTACGGGAGA had a TetR repression strength of 0.0647. TCCCAGAAAGTGCGGGAGA displayed a TetR repression strength of 0.143. The sequence TCCCGATTAGTCTGGGAGA displayed a TetR repression strength of 0.173. Sequence TCCCTTACAGTTTTGGAGA displayed a TetR repression strength of 0.0352.

TCCCCGATAGTACGTGAGA showed a TetR repression strength of 0.185.

Sequence TCCCACAGAGTATGTGAGA showed a TetR repression strength of 1.24. TCCCTATGAGTACGTGAGA: the TetR repression strength amounted to 0.409.

TCCCTGCGAGTGTGGGAGA came in with a TetR repression strength of 0.143.

With TCCCAGTTAGTTTACGAGA, the TetR repression strength was 0.32.

With TCCCCCAGAGTTGTAGAGA, the TetR repression strength worked out at 0.335. The figure for TCCCCGAGAGTAAGGGAGA is 0.204; for TCCCATACAGTCGCGGAGA it is 0.192; for TCCCAGCGAGTACTCGAGA it is 0.198. Consider TCCCTGTCAGTCTGAGAGA, for which the TetR repression strength stood at 0.247. For TCCCGAGCAGTGCTAGAGA, the TetR repression strength is 0.661. Consider TCCCGAGTAGTGGCAGAGA, for which the TetR repression strength was 0.209.

The sequence TCCCTGACAGTATGGGAGA yielded a TetR repression strength of 0.117. In the case of TCCCCTCTAGTCAGGGAGA, the TetR repression strength turned out to be 0.496. The figure for TCCCGCGAAGTGTAGGAGA is 0.0797; for TCCCGCTTAGTGAGCGAGA it is 0.201; for TCCCAGGCAGTGTAGGAGA it is 0.435. As to TCCCCTCTAGTAGACGAGA, the TetR repression strength was 0.301.

Sequence TCCCGGTGAGTCCAGGAGA returned a TetR repression strength of 0.198. The figure for TCCCACCTAGTATCGGAGA is 0.592; for TCCCGGGTAGTTAATGAGA it is 1. On to TCCCACACAGTATGGGAGA, for which the TetR repression strength was found to be 0.296. TCCCCAAGAGTTTGTGAGA displayed a TetR repression strength of 0.0286. The figure for TCCCGAGGAGTACCGGAGA is 0.408; for TCCCGTGCAGTTGGGGAGA it is 0.314; for TCCCGGACAGTTATGGAGA it is 0.318. For the sequence TCCCGGTAAGTGAGGGAGA, the TetR repression strength was 0.073. Consider TCCCATGTAGTGGTGGAGA, for which the TetR repression strength stood at 0.202.

For TCCCTTACAGTTTTTGAGA, the TetR repression strength was found to be 0.366. For TCCCTGTTAGTTAGAGAGA, the TetR repression strength was found to be 0.452. On to TCCCCGTGAGTTGGTGAGA, for which the TetR repression strength is 0.195. The sequence TCCCGTTGAGTCGGCGAGA returned a TetR repression strength of 0.157. The figure for TCCCCGGAAGTTACGGAGA is 0.343. For TCCCGGTCAGTTTCGGAGA the value was 0.159; for TCCCTTGCAGTTTAAGAGA, 0.259.

For TCCCAGCTAGTGTCTGAGA, the TetR repression strength was 0.283. In turn, TCCCGCCGAGTGGAGGAGA had a TetR repression strength of 0.0933. In the case of TCCCAAAAAGTCTGAGAGA, the TetR repression strength turned out to be 0.58.

In turn, TCCCGGACAGTCTACGAGA showed a TetR repression strength of 0.262. For TCCCCATAAGTGATAGAGA the value was 0.522; for TCCCACTGAGTGAAGGAGA, 0.00864. In turn, TCCCTCGGAGTTAACGAGA came in with a TetR repression strength of 0.114. For TCCCTGTCAGTGTGGGAGA the value was 0.471; for TCCCTGTCAGTGGGGGAGA, 0.229. For TCCCGGTGAGTCAGGGAGA, the TetR repression strength worked out at 0.228. Sequence TCCCCTAAAGTGGCGGAGA gave a TetR repression strength of 0.176. Sequence TCCCGAACAGTAGTGGAGA came in with a TetR repression strength of 0.137. The figure for TCCCGGTTAGTCGTTGAGA is 0.225; for TCCCAATCAGTGATAGAGA it is 0.785. On to TCCCTCGAAGTTACCGAGA, for which the TetR repression strength was 0.221.

TCCCGGGAAGTAGGGGAGA showed a TetR repression strength of 0.163. TCCCGGATAGTGTCCGAGA: the TetR repression strength was 0.43. The figure for TCCCCATTAGTGAGTGAGA is 0.324. On to TCCCGATCAGTATGCGAGA, for which the TetR repression strength was 0.135.

TCCCGCTCAGTGGGGGAGA came in with a TetR repression strength of 0.346. TCCCGGGGAGTACTAGAGA came in with a TetR repression strength of 0.283. As for TCCCACGTAGTGCAAGAGA, the TetR repression strength is 0.62.

With TCCCCGGGAGTACAAGAGA, the TetR repression strength turned out to be 0.356. Regarding TCCCAAGGAGTCTCAGAGA, the TetR repression strength amounted to 0.536. Regarding TCCCTGCGAGTAGTCGAGA, the TetR repression strength stood at 0.542.

Regarding TCCCCGTAAGTGGTAGAGA, the TetR repression strength came out at 0.118. TCCCGGGCAGTTGTAGAGA came in with a TetR repression strength of 0.17.

TCCCCCGTAGTTACAGAGA gave a TetR repression strength of 0.171. For TCCCCGTCAGTTGGGGAGA the value was 0.19; for TCCCGGGAAGTGACTGAGA, 0.263; for TCCCGCCAAGTGGCTGAGA, 0.183.

TCCCTGCCAGTTGTTGAGA: the TetR repression strength came to 0.135. With TCCCCCACAGTCTGAGAGA, the TetR repression strength turned out to be 0.109. TCCCTGGTAGTACGGGAGA gave a TetR repression strength of 0.405. Take TCCCATCGAGTACTGGAGA: the TetR repression strength amounted to 1.02. The sequence TCCCTAGTAGTACTGGAGA showed a TetR repression strength of 0.176. In turn, TCCCGGCAAGTGGGTGAGA displayed a TetR repression strength of 0.0995. Consider TCCCGCCAAGTTTGGGAGA, for which the TetR repression strength is 0.271. The sequence TCCCTGTAAGTGAGAGAGA returned a TetR repression strength of 0.405. TCCCGGTGAGTGAATGAGA registered a TetR repression strength of 0.355.

In turn, TCCCCACGAGTAGGGGAGA showed a TetR repression strength of 0.268. The figure for TCCCCCACAGTTGGTGAGA is 0.207; for TCCCGTCTAGTATCAGAGA it is 0.38; for TCCCTTCTAGTCTTCGAGA it is 0.401. The figure for TCCCGGCCAGTGGCCGAGA is 0.28; for TCCCCCCCAGTCTAGGAGA it is 0.8. Turning to TCCCCATGAGTCGTTGAGA, the TetR repression strength turned out to be 0.337. For the sequence TCCCGCGCAGTTGGAGAGA, the TetR repression strength was 0.399. TCCCGCATAGTGGAGGAGA gave a TetR repression strength of 0.157. As for TCCCGATTAGTGGCGGAGA, the TetR repression strength stood at 0.446. The figure for TCCCAAACAGTGTTCGAGA is 0.305; for TCCCAGGCAGTCACGGAGA it is 0.313; for TCCCTGACAGTACTCGAGA it is 0.134. For TCCCGCGAAGTCTACGAGA the value was 0.303. In turn, TCCCGCAAAGTGTGCGAGA came in with a TetR repression strength of 0.00592. For TCCCGATCAGTTCGTGAGA, the TetR repression strength was 0.0283. The sequence TCCCACCAAGTGGCAGAGA yielded a TetR repression strength of 0.538. With TCCCCTAGAGTCGGCGAGA, the TetR repression strength amounted to 0.128. Sequence TCCCTTCTAGTCATTGAGA displayed a TetR repression strength of 0.394.
